# Results taken from publication PMC4336329 (PLoS ONE, 2015).
# The campaign covered roughly 310,000 compounds. About 2,200 (0.71%) showed an effect of 50% or more. Effects have a minus sign here. This is one part of the list.
# Biological target: human ether-à-go-go-related gene (hERG) potassium channel (human, UniProt Q12809)
# Experiment: primary screen, population patch clamp on CHO cells stably expressing hERG
# human ether-à-go-go-related gene (hERG) potassium channel, sequence (Q12809 whole entry, looked up): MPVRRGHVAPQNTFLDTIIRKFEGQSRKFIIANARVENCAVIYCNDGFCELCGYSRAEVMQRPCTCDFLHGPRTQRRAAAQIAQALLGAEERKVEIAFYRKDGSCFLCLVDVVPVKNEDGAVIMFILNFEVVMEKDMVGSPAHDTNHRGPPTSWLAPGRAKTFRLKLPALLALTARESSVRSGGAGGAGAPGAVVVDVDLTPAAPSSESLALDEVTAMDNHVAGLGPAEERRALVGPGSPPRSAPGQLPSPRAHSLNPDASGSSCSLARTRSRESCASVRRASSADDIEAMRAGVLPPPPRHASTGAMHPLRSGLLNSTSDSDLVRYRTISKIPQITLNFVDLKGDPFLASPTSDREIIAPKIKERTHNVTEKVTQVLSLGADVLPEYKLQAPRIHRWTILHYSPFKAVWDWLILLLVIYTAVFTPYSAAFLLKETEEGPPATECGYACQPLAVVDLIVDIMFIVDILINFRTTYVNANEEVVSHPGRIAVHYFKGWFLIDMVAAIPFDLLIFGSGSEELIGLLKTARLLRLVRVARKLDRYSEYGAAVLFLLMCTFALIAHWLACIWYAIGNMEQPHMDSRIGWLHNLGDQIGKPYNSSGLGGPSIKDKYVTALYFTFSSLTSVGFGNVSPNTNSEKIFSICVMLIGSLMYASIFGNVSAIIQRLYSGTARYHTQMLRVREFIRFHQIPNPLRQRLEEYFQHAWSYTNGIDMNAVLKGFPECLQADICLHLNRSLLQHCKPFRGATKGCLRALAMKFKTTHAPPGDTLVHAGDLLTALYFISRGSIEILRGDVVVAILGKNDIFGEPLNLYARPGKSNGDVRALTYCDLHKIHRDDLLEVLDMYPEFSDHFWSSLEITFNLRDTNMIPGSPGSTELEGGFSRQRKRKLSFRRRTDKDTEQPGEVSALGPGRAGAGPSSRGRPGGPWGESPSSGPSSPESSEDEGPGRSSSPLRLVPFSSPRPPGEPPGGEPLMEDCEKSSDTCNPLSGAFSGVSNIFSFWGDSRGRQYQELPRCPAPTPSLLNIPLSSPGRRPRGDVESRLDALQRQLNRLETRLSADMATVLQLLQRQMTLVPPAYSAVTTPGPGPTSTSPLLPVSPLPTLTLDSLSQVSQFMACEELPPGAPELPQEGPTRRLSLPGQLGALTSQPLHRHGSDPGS
row,Compound,"hERG current change (%, negative = inhibition) at 1uM"
1,CCOC(=O)c1sc2ccc(S(=O)(=O)N3CC(C)CC(C)C3)cc2c1N (centres unmarked),1.42%
2,CN(C)c1ccc(NC(=O)CSc2nc(N)c(C(=O)Nc3ccc(N(C)C)cc3)s2)cc1,13.5%
3,CCCCN(C)CCCNC(=O)c1cccc(N2CCCC2=O)c1,11.1%
4,Fc1cccc(/C=N/Nc2ccc(Cl)nn2)c1,11.2%
5,CN(CCOc1ccccc1)C(=O)c1cc(-c2ccco2)nc2ccccc12,-11.4%
6,c1csc(C2=NNC(=NC3CCCCC3)SC2)c1,10.2%
7,O=c1c2cc(Br)ccc2nc2n1CCCCC2,-3.14%
8,CCOC(=O)CN1NC2(CCCCCC2)NC1=S,6.37%
9,CCOC(=O)c1cc2c(N)c(C(=O)c3ccc(Br)cc3)sc2[nH]c1=O,-5.84%
10,Cc1ccc(C)c(Cn2nnc3c(=O)[nH]c(C4CCN(C(=O)c5ccco5)CC4)nc32)c1,11.3%
11,CCC(C(=O)NCc1ccc(F)cc1)N(Cc1ccco1)C(=O)c1snc(C(N)=O)c1N (centres unmarked),4.92%
12,COc1ccc(C2N(c3cc(C)on3)C(=O)C3CCCN32)cc1 (centres unmarked),9.81%
13,CN(C)CCN1C(=O)c2oc3ccc(F)cc3c(=O)c2C1c1ccncc1 (centres unmarked),8.84%
14,COc1cccc(/C=N/NC(=O)CCc2ccccc2)c1,-2.97%
15,O=C(CCC1CCCN(C(=O)c2ccsc2)C1)NCc1ccc(F)c(F)c1 (centres unmarked),7.35%
16,CC(=O)c1cccc(NC(=O)CNC(=O)Cc2ccccc2)c1,25.4%
17,COc1cc(C2CC(=O)c3c(ccc4ccccc34)N2)ccc1O (centres unmarked),12.2%
18,COc1ccc2c(N)c(C(=O)NN)[nH]c2c1,12.1%
19,CS/C(N)=N/N=C/c1ccc2c(c1)OCO2,13.3%

row,Compound,"hERG current change (%, negative = inhibition) at 1uM"
1,CC1CN(c2nc3ccccn3c(=O)c2/C=C(\C#N)C(=O)N2CCOCC2)CC(C)O1 (centres unmarked),10.2%
2,CCOC(=O)c1c(C)n(CCNC(C)=O)c2ccc(OC)cc12,5.97%
3,O=S(=O)(NCCc1ccccc1)c1ccc(-n2cnnn2)cc1,-20.6%
4,O=C(Cc1ccc(F)cc1)Nc1c2c(nn1-c1cccc(Cl)c1)CS(=O)C2 (centres unmarked),5.51%
5,C[C@H](NC(=O)c1ccccc1Cl)C(=O)OCC(=O)N1CC2(C)CC1CC(C)(C)C2 (some centres unmarked),0.641%
6,CCO.CCOc1ccc(Cl)cc1C(c1c(C)[nH][nH]c1=O)c1c(C)[nH][nH]c1=O,12.3%
7,COc1ccccc1C(=O)NCC(=O)OCC(=O)Nc1cccc(S(=O)(=O)N(C)C)c1,19%
8,Cc1ccc(N=Cc2c(O)c3ccccc3oc2=O)c(C)c1,14.5%
9,CON(C)c1nc(C2CCCCC2)c2cc(C)ccc2n1,15.1%
10,COc1ccc2[nH]cc(CCNC(=O)COc3ccc4ccc(=O)oc4c3)c2c1,3.38%
11,Cc1nc2ccc(NC(=O)c3cccs3)cc2c(=O)n1Cc1ccc(Cl)cc1,13.6%
12,COCCNS(=O)(=O)c1ccc2c(c1)C(=O)c1cc(S(=O)(=O)NCCOC)ccc1-2,8.67%
13,Cc1c(OC(C)C(=O)NCCN2CCOCC2)ccc2c3c(c(=O)oc12)CCC3 (centres unmarked),12.4%
14,COC(=O)COc1cccc2c(=O)n(CC(=O)N3CCCc4ccccc43)ccc12,19.7%
15,COc1cc(/C=N/NC(=O)COc2c(C)cc([N+](=O)[O-])cc2C)ccc1OC(=O)c1ccccc1Br,30.8%
16,O=c1cccc2n1CC1CC2CN(S(=O)(=O)c2cc(Cl)ccc2Cl)C1 (centres unmarked),-5.73%
17,CCN(C(=O)Nc1ccccc1)c1ccccc1,11.3%
18,CCN(CC)C(=O)c1ccccc1NS(=O)(=O)c1ccc(C)cc1,1.57%
19,CCOc1cc(N2CCOCC2)c(OCC)cc1NC(=O)CN1C(=O)NC2(CCCCCCC2)C1=O,-26.8%

row,Compound,"hERG current change (%, negative = inhibition) at 1uM"
1,N#CCCN1CCN(C(=S)c2ccc(-c3ccc(Cl)c(Cl)c3)o2)CC1,1.5%
2,CN(c1ccc(C(=O)N2CCOCC2)cc1[N+](=O)[O-])C1CCCCC1,-12.6%
3,O=C(CCc1nnc(CCCCc2ccccc2)o1)NCc1cccc(F)c1,9.39%
4,COc1ccc(C(=O)CSc2nn3c(=O)c(C(C)(C)C)nnc3s2)cc1,14.2%
5,COc1ccccc1C(=O)NCC(=O)N/N=C(\C)Cc1ccccc1,15.3%
6,COc1cc(OC)cc(-c2nc3ccccc3c(=O)o2)c1,7.52%
7,CC(C)c1ccc(N(CCc2ccccn2)C(=O)C(C)(C)C)cc1,11.9%
8,CCOC(=O)C(NC(=O)NCc1ccccc1)(OCC)C(F)(F)F (centres unmarked),10.6%
9,[O-][N+]1=c2ccc(Nc3ccccc3)cc2=NC12CCCCC2,-15.6%
10,CCCc1nnc(NC(=O)CN2C(=O)C3C4C=CC(C4)C3C2=O)s1 (centres unmarked),-2.18%
11,CC(C)C(=O)Nc1nnc(-c2ccco2)s1,12.2%
12,Cc1cc(NC(=O)CCC(=O)N(CC(=O)NC2CCCC2)c2cccc(C)c2C)no1,10.7%
13,CCOC(=O)c1ccc(NC(=O)C(CC)(CC)C(=O)OCC)cc1,-0.122%
14,COc1cccc(N(C(=O)c2ccco2)C(C(=O)NC2CCCC2)c2cccnc2)c1 (centres unmarked),-10.3%
15,Cc1onc(-c2ccc(Cl)cc2)c1-c1ccnc(SCC(=O)Nc2ccc(C(C)C)cc2)n1,7.01%
16,COc1cc2c(cc1O)[C@H](Cc1ccc(Oc3cc(C[C@@H]4NCCc5cc(OC)c(O)cc54)ccc3O)cc1)NCC2,3.27%
17,COc1ccc(CC(=O)NNC(=O)[C@@H]2CCCC[C@@H]2C(=O)O)cc1,0.68%
18,Cc1cc(NC(=O)CC(F)(F)F)n(-c2ccccc2)n1,6.48%
